T1: RBFOX1 RRM RbFoxmut (Fox-RRM*) (Homo sapiens, UniProt Q9NWB1 109-208, R118D;E147R;N151S;E152T)
T1 sequence: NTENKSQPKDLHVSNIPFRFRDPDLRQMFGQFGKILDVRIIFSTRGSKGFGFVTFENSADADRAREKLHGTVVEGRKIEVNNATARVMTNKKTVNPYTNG

B1: GCGGGUG (DNA:RNA)
RNA: GGGAGACCGGAAUUCAGAUUGUCCGCGGGUGUUAAAUCCCGUCGUAGCCACCA
DNA 1: CAATCTGAATTCCGGTCTCCC
DNA 2: TGGTGGCTACGACGGGATT
B2: CUAACGC (DNA:RNA)
RNA: GGGAGACCGGAAUUCAGAUUGUCCCUAACGCUUAAAUCCCGUCGUAGCCACCA
DNA 1: CAATCTGAATTCCGGTCTCCC
DNA 2: TGGTGGCTACGACGGGATT
B3: CACUGUG (DNA:RNA)
RNA: B1 RNA with G25C, C26A, G27C, G28U
DNA 1: CAATCTGAATTCCGGTCTCCC
DNA 2: TGGTGGCTACGACGGGATT
B4: AUUCGAG (DNA:RNA)
RNA: B1 RNA with G25A, C26U, G27U, G28C, U30A
DNA 1: CAATCTGAATTCCGGTCTCCC
DNA 2: TGGTGGCTACGACGGGATT
B5: AGUUCCU (DNA:RNA)
RNA: B2 RNA with C25A, U26G, A27U, A28U, G30C, C31U
DNA 1: CAATCTGAATTCCGGTCTCCC
DNA 2: TGGTGGCTACGACGGGATT
B6: GGUCGUG (DNA:RNA)
RNA: B1 RNA with C26G, G27U, G28C
DNA 1: CAATCTGAATTCCGGTCTCCC
DNA 2: TGGTGGCTACGACGGGATT
B7: CUCGAAU (DNA:RNA)
RNA: B2 RNA with A27C, A28G, C29A, G30A, C31U
DNA 1: CAATCTGAATTCCGGTCTCCC
DNA 2: TGGTGGCTACGACGGGATT
B8: CUAGUUA (DNA:RNA)
RNA: B2 RNA with A28G, C29U, G30U, C31A
DNA 1: CAATCTGAATTCCGGTCTCCC
DNA 2: TGGTGGCTACGACGGGATT
B9: UUCUGAG (DNA:RNA)
RNA: B1 RNA with G25U, C26U, G27C, G28U, U30A
DNA 1: CAATCTGAATTCCGGTCTCCC
DNA 2: TGGTGGCTACGACGGGATT
B10: UAGGAGA (DNA:RNA)
RNA: B1 RNA with G25U, C26A, G29A, U30G, G31A
DNA 1: CAATCTGAATTCCGGTCTCCC
DNA 2: TGGTGGCTACGACGGGATT
B11: CUCCCGC (DNA:RNA)
RNA: B2 RNA with A27C, A28C
DNA 1: CAATCTGAATTCCGGTCTCCC
DNA 2: TGGTGGCTACGACGGGATT
B12: CACUCUA (DNA:RNA)
RNA: B2 RNA with U26A, A27C, A28U, G30U, C31A
DNA 1: CAATCTGAATTCCGGTCTCCC
DNA 2: TGGTGGCTACGACGGGATT
B13: CGGUUCC (DNA:RNA)
RNA: B2 RNA with U26G, A27G, A28U, C29U, G30C
DNA 1: CAATCTGAATTCCGGTCTCCC
DNA 2: TGGTGGCTACGACGGGATT
B14: GCGAGAA (DNA:RNA)
RNA: B1 RNA with G28A, U30A, G31A
DNA 1: CAATCTGAATTCCGGTCTCCC
DNA 2: TGGTGGCTACGACGGGATT
B15: AGUCUCA (DNA:RNA)
RNA: GGGAGACCGGAAUUCAGAUUGUCCAGUCUCAUUAAAUCCCGUCGUAGCCACCA
DNA 1: CAATCTGAATTCCGGTCTCCC
DNA 2: TGGTGGCTACGACGGGATT
B16: UACGACU (DNA:RNA)
RNA: B15 RNA with A25U, G26A, U27C, C28G, U29A, A31U
DNA 1: CAATCTGAATTCCGGTCTCCC
DNA 2: TGGTGGCTACGACGGGATT
B17: ACCGUUC (DNA:RNA)
RNA: B1 RNA with G25A, G27C, G29U, G31C
DNA 1: CAATCTGAATTCCGGTCTCCC
DNA 2: TGGTGGCTACGACGGGATT
B18: CACCGCU (DNA:RNA)
RNA: B15 RNA with A25C, G26A, U27C, U29G, A31U
DNA 1: CAATCTGAATTCCGGTCTCCC
DNA 2: TGGTGGCTACGACGGGATT
B19: UCGGUGA (DNA:RNA)
RNA: B1 RNA with G25U, G29U, U30G, G31A
DNA 1: CAATCTGAATTCCGGTCTCCC
DNA 2: TGGTGGCTACGACGGGATT
B20: GAGUGGU (DNA:RNA)
RNA: B1 RNA with C26A, G28U, U30G, G31U
DNA 1: CAATCTGAATTCCGGTCTCCC
DNA 2: TGGTGGCTACGACGGGATT

Residue numbers refer to the chain shown, from its start. The list shows a part of the results.

In the experiment the target is T1, RBFOX1 RRM RbFoxmut (Fox-RRM*). The experiment is described as follows: EMSA; HiTS-Eq, 1 nM pool, 10 min; buffer printed only for the single-RNA assays: 10 mM Tris pH 7.5, 150 mM NaCl, 3.4 mM EDTA, 0.001% NP-40, 30 C. The settings on record: tags: His6 N-terminal (pET28a); label: 5' 32P. The procedure, abridged:
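A pool of RNA with 7 randomized nucleotides, 5′-radiolabelled and with DNA-annealed flanks, was equilibrated at 1 nM for 10 min in 50 µL with purified RbFox RRM, wild type or mutant, across increasing protein concentrations. Free RNA was separated by 8% native PAGE, excised, reverse-transcribed, barcoded by PCR and sequenced. Relative association constants were obtained from read-count changes of each RNA species versus the control reaction and normalised to the cognate motif.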
For orientation: Mobility shift assays separate free from complexed probe on a gel.
For B1, the binding signal was 0.194 KA relative to UGCAUGU.

With B2, the binding signal was 0.0809 KA relative to UGCAUGU.

Take B3: the binding signal is 0.15 KA relative to UGCAUGU.

For B4, the binding signal was 0.118 KA relative to UGCAUGU.

On to B5, for which the binding signal is 0.0589 KA relative to UGCAUGU.

As to B6, the binding signal is 0.242 KA relative to UGCAUGU.

On to B7, for which the binding signal was 0.106 KA relative to UGCAUGU.

B8: the binding signal is 0.118 KA relative to UGCAUGU.

Regarding B9, the binding signal was 0.0858 KA relative to UGCAUGU.

As for B10, the binding signal was 0.0716 KA relative to UGCAUGU.

For the molecule B11, the binding signal was 0.0628 KA relative to UGCAUGU.

As to B12, the binding signal is 0.113 KA relative to UGCAUGU.

Regarding B13, the binding signal was 0.104 KA relative to UGCAUGU.

As for B14, the binding signal was 0.0999 KA relative to UGCAUGU.

As to B15, the binding signal was 0.102 KA relative to UGCAUGU.

On to B16, for which the binding signal was 0.0741 KA relative to UGCAUGU.

Take B17: the binding signal was 0.0746 KA relative to UGCAUGU.

In the case of B18, the binding signal was 0.0954 KA relative to UGCAUGU.

Turning to B19, the binding signal is 0.133 KA relative to UGCAUGU.

Regarding B20, the binding signal was 0.147 KA relative to UGCAUGU.
